Measured values published in PMC4336329 (PLoS ONE, 2015).
The whole screen tested about 310,000 compounds, of which about 14,000 (4.5%) showed an effect of 50% or more. Effects have a minus sign here. The list shows a part of the results.

Biological target: human ether-à-go-go-related gene (hERG) potassium channel (human, UniProt Q12809)
Assay: primary screen, population patch clamp on CHO cells stably expressing hERG
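Further: peak tail current of the secondary pulse compared with the same well before compound.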

Chain of human ether-à-go-go-related gene (hERG) potassium channel (Q12809 whole entry, looked up): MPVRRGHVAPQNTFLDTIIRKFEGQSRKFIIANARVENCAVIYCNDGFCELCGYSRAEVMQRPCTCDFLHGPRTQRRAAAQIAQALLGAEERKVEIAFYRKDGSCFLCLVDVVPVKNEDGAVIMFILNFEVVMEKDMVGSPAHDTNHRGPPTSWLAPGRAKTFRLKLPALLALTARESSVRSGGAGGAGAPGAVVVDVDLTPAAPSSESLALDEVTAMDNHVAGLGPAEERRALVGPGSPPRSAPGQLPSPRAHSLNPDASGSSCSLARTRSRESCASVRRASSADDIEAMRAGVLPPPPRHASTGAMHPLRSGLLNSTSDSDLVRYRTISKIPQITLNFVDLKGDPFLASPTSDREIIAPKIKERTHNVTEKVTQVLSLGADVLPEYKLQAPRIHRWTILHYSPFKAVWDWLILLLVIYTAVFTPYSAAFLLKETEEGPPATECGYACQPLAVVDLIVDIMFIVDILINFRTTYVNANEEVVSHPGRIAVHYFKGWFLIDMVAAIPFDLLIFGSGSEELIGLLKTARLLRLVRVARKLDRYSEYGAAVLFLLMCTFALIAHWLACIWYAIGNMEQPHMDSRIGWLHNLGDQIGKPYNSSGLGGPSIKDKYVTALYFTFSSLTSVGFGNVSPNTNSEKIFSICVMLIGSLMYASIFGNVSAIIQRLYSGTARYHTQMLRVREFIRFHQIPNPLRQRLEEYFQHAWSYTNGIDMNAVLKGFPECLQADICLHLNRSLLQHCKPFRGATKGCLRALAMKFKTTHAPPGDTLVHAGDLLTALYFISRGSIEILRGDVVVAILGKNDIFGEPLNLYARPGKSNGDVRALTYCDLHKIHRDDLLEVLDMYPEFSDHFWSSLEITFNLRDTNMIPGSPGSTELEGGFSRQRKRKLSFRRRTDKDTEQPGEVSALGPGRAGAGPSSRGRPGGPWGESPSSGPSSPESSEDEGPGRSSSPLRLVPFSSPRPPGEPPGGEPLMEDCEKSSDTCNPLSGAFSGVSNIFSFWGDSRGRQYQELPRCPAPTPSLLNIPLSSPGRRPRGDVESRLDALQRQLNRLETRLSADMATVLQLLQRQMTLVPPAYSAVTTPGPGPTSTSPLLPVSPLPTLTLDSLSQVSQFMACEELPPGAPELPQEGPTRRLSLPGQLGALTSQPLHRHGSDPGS

SMILES	hERG current change (%, negative = inhibition) at 10uM [%]
Cc1ccc2c(c1)N(CCCC(=O)NCC1COc3ccccc3O1)C(=O)CO2 (stereo not shown)	-12.7
COc1cc(C(=O)N2CCN(c3cc(Cl)ccc3Cl)CC2)cc(OC)c1OC	6.44
NC(=O)c1cccc(C(N)=O)n1	8.15
Cc1ccc(S(=O)(=O)n2nc(OC(=O)c3ccco3)cc2N)cc1	12.4
CC(=O)N1CC(C)Oc2ccc(S(=O)(=O)NC(CC(=O)O)c3ccc(C)cc3C)cc21 (stereo not shown)	7.28
O=C(Cc1ccc(Cl)cc1)NNC(=S)NC(=O)c1cccs1	16
Cc1ccccc1OCC(=O)NCc1ccccc1	2.05
Cc1cc(C)c2nc(SCC(=O)Nc3ccccc3N3CCOCC3)c(C#N)cc2c1	-14.4
Cc1ccc(C(=O)N/C(=C/c2ccc(-c3cccc([N+](=O)[O-])c3)o2)C(=O)NCCCN(C)C)cc1	-80
Cc1ccc(C(=O)NCc2cccs2)cc1S(=O)(=O)N1CCCCC1	-10.6
Cc1cc(C)nc(N/N=C/c2c[nH]c3ccccc23)n1	17
CCCn1cc(C(=O)O)cn1	-9.59
O=c1[nH]c(=S)n(Cc2ccc(F)cc2)c(O)c1/C=N/N1CCCCCC1	-46.9
CN(C)S(=O)(=O)c1ccc(NC(=O)C2CC(=O)N(Cc3ccccc3Cl)C2)cc1 (stereo not shown)	-0.379
c1csc(-c2noc(CN3CCN4CCCC4C3)n2)c1 (stereo not shown)	-0.736
CN(c1cccc(NC(=O)c2ccc(Cl)c(S(=O)(=O)N3CCOCC3)c2)c1)S(C)(=O)=O	-15.8
CC1=NN(C(=O)c2ccco2)C(O)(c2ccccc2)C1 (stereo not shown)	11.3
Cc1ccc(-n2ncc(C#N)c2/N=C/N2CCCCCC2)cc1	-26.4
Cc1cccn2c(=O)c(/C=C(\C#N)S(=O)(=O)c3ccccc3)c(N3CCN(Cc4ccccc4)CC3)nc12	-4.68
CCOC(=O)c1c(CSc2ccccc2)n(C)c2cc(Br)c(OCC(O)CNC(CO)(CO)CO)cc12 (stereo not shown)	2.71
O=C(NCCc1ccccc1)C1CCC(CNS(=O)(=O)c2cccs2)CC1 (stereo not shown)	12.8
N#CC(c1ccc(O)cc1)N1CCOCC1 (stereo not shown)	8.57
CCS(=O)(=O)N1CCN(C(=O)CC(C)C)CC1	-7.56
Cc1cccc(NC(=O)/C(=C\c2ccco2)NC(=O)c2ccccc2)c1	-22.4
COC(=O)c1ccccc1NC(=O)c1cccs1	1.38
Cc1[nH]c2ccc(C(=O)OCC(=O)Nc3cccc(S(N)(=O)=O)c3)cc2c1C	-1.33
Cc1onc(-c2ccccc2)c1C(=O)NC(=S)NNC(=O)c1ccncc1	3.16
O=C(NCC1(O)CCCCC1)C1CCC(=O)N(Cc2ccccc2F)C1 (stereo not shown)	14.2

SMILES	hERG current change (%, negative = inhibition) at 10uM [%]
Cc1ccc(NC(=O)CN(C)C(=O)C(C)OC(=O)CNC(=O)c2ccc(Cl)c([N+](=O)[O-])c2)cc1 (stereo not shown)	-43
COc1ccc(-n2ccnc2SCC(=O)NCc2ccc(F)cc2)c(OC)c1	-10.7
CCOC(=O)c1c(C)[nH]c(NC(=O)Nc2ccc(NC(C)=O)cc2)c1C	13.4
COc1ccc(CCNC(=O)CCNC(=O)c2ccc(Br)cc2)cc1OC	-0.633
O=C1SC(Cc2ccccc2)C(=O)N1c1ccccc1 (stereo not shown)	7.84
CCOc1ccc(N=C(C)C2=C(O)c3ccccc3C2=O)cc1	4.02
CCOCC(=O)Nc1nc2ccccc2s1	12.7
O=S(=O)(NC1=NCCCCC1)c1cccs1	3.96
Cc1ccc(S(=O)(=O)Nc2ccc(S(=O)(=O)N3CCCC3)cc2)cc1	-12.4
CCC(C)(C)NC(=O)C(OC(=O)c1ccco1)c1ccccc1OC (stereo not shown)	8.13
CCN1CCN(CC(O)COc2ccc(C)c(C)c2)CC1.Cl (stereo not shown)	-18.3
CCS(=O)(=O)c1nc(S(=O)(=O)c2ccc(C)cc2)c(N2CCC3(CC2)OCCO3)s1	-35.4
O=C(CCN1CCCCC1=O)NC1CCCN(Cc2ccc(Cl)cc2)C1 (stereo not shown)	-8.14
CC1(C)C2CCC1(C)C(NC(=O)/C=C/c1ccccc1)C2 (stereo not shown)	-11.9
COc1ccc(OC)c(CNC(=O)C2CCCN(S(=O)(=O)N3CC(C)CC(C)C3)C2)c1 (stereo not shown)	-10.6
O=C(NC(=S)N1CCN(c2ccccc2)CC1)c1ccc(S(=O)(=O)N2CCOCC2)cc1	13.8
CC(=O)Nc1ccc(C(=O)COC(=O)CCc2ccccc2)c(F)c1	-2.03
O=S(=O)(CCN1CCN(C(c2ccccc2)c2ccccc2)CC1)C(F)(F)F	4.97
Cc1ccn2c(=O)nc(SCC(=O)NCc3ccccc3Cl)nc2c1	-8.93
CCOC(=O)C1CCCN(C(=O)Cn2nc(C)n3c(cc4c(OC)cccc43)c2=O)C1 (stereo not shown)	-6.37
Cc1ccc(N2CCN(C(=O)c3cc(-c4ccc(F)cc4)[nH]c3C)CC2C)cc1 (stereo not shown)	-13.3
CCC(C)[C@H](NS(=O)(=O)c1ccc(C)cc1)C(=O)N1CCC(C(=O)N[C@@H](Cc2ccccc2)C(=O)O)CC1 (stereo partly shown)	13.3
CC(/C=C/c1ccccc1)=N\NC(=O)c1cc(C)[nH]n1	-11.5
CC1(c2cccc(Br)c2)NC(=O)N(CC(=O)NCC2CCCO2)C1=O (stereo not shown)	5.98
CCN(CC)CCOC(=O)c1ccc(NC(=O)CCCN2C(=O)/C(=C/c3cccs3)SC2=S)cc1	-7.96
CCN(CC)CCOc1nnc(-c2ccc(C)cc2)c2ccccc12	-67.7
COC(=O)C1OC2(OC1C(=O)OC)c1ccccc1-c1ccccc12 (stereo not shown)	13.5
